# Assay results from article PMC4336329 (PLoS ONE, 2015).
# Hit rate of the full screen: of about 310,000 compounds, about 2,200 (0.71%) showed an effect of 50% or more. The effect is printed as a negative number. The list shows a part of the results.
# Target: human ether-à-go-go-related gene (hERG) potassium channel (human, UniProt Q12809)
# Assay: primary screen, population patch clamp on CHO cells stably expressing hERG
# Sequence of human ether-à-go-go-related gene (hERG) potassium channel (Q12809 whole entry, looked up): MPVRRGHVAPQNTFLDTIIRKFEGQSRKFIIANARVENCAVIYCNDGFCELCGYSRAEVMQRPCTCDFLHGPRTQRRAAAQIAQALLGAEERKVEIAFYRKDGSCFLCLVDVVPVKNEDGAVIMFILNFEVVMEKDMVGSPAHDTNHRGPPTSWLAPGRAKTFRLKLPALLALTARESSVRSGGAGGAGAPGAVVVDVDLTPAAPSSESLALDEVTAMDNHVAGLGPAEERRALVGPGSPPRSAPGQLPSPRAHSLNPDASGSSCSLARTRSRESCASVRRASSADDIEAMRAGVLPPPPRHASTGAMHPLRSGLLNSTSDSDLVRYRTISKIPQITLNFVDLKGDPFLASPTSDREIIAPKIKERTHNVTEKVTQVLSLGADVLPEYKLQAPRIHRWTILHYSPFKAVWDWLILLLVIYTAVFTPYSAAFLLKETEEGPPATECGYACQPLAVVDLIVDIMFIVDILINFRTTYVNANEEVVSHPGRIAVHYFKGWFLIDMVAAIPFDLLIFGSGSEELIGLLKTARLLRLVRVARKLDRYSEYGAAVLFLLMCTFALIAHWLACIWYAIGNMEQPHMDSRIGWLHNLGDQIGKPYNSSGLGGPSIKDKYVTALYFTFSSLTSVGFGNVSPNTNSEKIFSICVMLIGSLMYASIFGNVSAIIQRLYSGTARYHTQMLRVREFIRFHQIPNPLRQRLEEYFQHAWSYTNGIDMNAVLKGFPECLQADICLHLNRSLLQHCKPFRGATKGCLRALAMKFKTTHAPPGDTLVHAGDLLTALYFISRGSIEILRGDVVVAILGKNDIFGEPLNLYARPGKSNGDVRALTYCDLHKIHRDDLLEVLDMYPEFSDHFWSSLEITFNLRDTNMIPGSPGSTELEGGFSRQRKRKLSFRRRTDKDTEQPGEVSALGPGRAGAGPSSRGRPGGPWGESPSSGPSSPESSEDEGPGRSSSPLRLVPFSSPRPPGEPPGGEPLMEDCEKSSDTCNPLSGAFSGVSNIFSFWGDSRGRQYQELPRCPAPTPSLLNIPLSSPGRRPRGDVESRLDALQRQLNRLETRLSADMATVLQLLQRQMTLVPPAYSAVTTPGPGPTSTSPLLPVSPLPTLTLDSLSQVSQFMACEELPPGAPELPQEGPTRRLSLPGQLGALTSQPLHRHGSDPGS
row,SMILES,"hERG current change (%, negative = inhibition) at 1uM"
1,COc1ccc(NC(=O)C(CC(C)C)NS(=O)(=O)c2ccc3c(c2)CCN3C(C)=O)cc1OC (centres unmarked),10.8%
2,COc1ccc(-c2noc(CN3CCC(Cc4ccccc4)CC3)n2)cc1,-4.49%
3,CC(=O)c1cc(-c2ccccc2)n(CC(=O)Nc2cccc(C)c2)c1C,2.49%
4,COc1ccc(S(=O)(=O)N2CCCC2CNC(=O)C(=O)NCCc2ccccc2)cc1 (centres unmarked),10.5%
5,Clc1cccc(Nc2nc(-c3ccncc3)nc3ccccc23)c1,-3.17%
6,COc1ccc2nc3sc(C(=O)NCc4cccs4)c(N)c3cc2c1,-1.62%
7,CCOc1ccccc1OCCCOc1ccc(C)cc1Cl,6.88%
8,COC(=O)c1ccc(S(=O)(=O)N2CCCN(Cc3ccc(F)cc3)CC2)n1C,5.98%
9,O=C(NCCO)c1cc2ccccc2c(=O)s1,8.76%
10,Cc1ccc2oc(C(=O)N(Cc3ccc(N(C)C)cc3)CC3CCCO3)c(C)c2c1 (centres unmarked),7.49%
11,Cc1ccc(/C=N/NC(=O)NC2CCCCC2)o1,4.89%
12,Cc1ccc(-c2cc(C(=O)Nc3nn[nH]n3)c3ccccc3n2)cc1,9.75%
13,CCc1ccc(OCC(=O)N/N=C(\C)c2ccc3c(c2)OCCO3)cc1,-3.42%
14,O=C(NC1CCC1)C1CCC(=O)N(Cc2ccccc2F)C1 (centres unmarked),-0.1%
15,Cc1cc(-c2c(C)[nH]n(-c3ccc(Cl)cc3)c2=O)n[nH]1,10.3%
16,Oc1ccc2ccccc2c1-c1sc(Nc2ccccc2)n[n+]1-c1ccc(F)cc1.[Cl-],6.48%
17,C=CCNC(=O)COCc1cc(-c2ccc3c(c2)OCO3)on1,9.44%
18,O=C(/C=C/c1ccc2c(c1)OCO2)NCCCN1CCOCC1,6.43%
19,COc1ccc(S(=O)(=O)n2nc(-c3ccc(Cl)cc3)cc2N)cc1OC,14.3%
20,C[C@@H]1O[C@@H](O[C@H]2[C@H](O)[C@@H](O)[C@H](Oc3c(-c4ccc(O)c(O)c4)oc4cc(O)cc(O)c4c3=O)O[C@@H]2CO)[C@H](O)[C@H](O)[C@H]1O,14.6%
21,Cc1ccc(C(=O)NCc2ccc(F)cc2)s1,7.24%
22,C=CCn1c(SCc2cc(C(C)=O)ccc2OCC)nc2ccccc2c1=O,4.65%
23,Cc1ccc(N2CCN(c3ccc([N+](=O)[O-])cn3)CC2)c(C)c1,5.15%

row,SMILES,"hERG current change (%, negative = inhibition) at 1uM"
1,O=C(O)C1CSC(CCc2ccccc2)N1 (centres unmarked),7.43%
2,O=C(NC(=S)Nc1ccccc1N1CCOCC1)c1ccc([N+](=O)[O-])cc1,10.6%
3,CCCN1C(=O)/C(=N\OCC(=O)NC23CC4CC(CC(C4)C2)C3)c2ccccc21,-0.568%
4,COc1ccc(NC(=O)CC(C)NCCCN2CCCC2=O)cc1.O=C(O)C(=O)O (centres unmarked),10.9%
5,N#C/C(=C\N1CCOCC1)C(N)=O,17.1%
6,COC(=O)C(O)(c1ccc(NC(=O)Oc2ccccc2)cc1)C(F)(F)F (centres unmarked),-6.21%
7,Cc1ccc(NC(=O)COC(=O)c2cccnc2)cc1,6.72%
8,CC(C)Sc1nc2c(c(=O)[nH]c(=O)n2C)n1Cc1ccc(Cl)cc1,4.3%
9,CC1CCN(C(=O)C2c3ccccc3C(=O)N3CCc4ccccc4C23)CC1 (centres unmarked),18.5%
10,COc1cc(NC(=O)c2ccc(Cl)cc2)c(OC)cc1Cl,2.91%
11,COc1ccc(Cc2c(N)nc(C)nc2N)cc1,18.7%
12,CC(=O)NS(=O)(=O)c1ccc(NC(=O)c2oc3c(Cl)cccc3c2C)cc1,11.8%
13,O=C(c1ccco1)n1nc(-c2ccco2)nc1SCc1ccccc1,14%
14,Cc1cc(NS(=O)(=O)c2ccc(NC(=O)C(C)Oc3ccccc3Cl)cc2)no1 (centres unmarked),1.96%
15,Cc1ccc(NC(=O)Nc2ccc(F)cc2F)c(OC(F)F)c1,15.3%
16,O=C(NCc1ccc(Cl)cc1)C1CCN(S(=O)(=O)c2cccs2)CC1,6.96%
17,CCOC(=O)Nc1ccc(C)cc1Br,-7.49%
18,COc1ccc(-n2c(O)c(/C=C/C=Nc3ccccc3)c(=O)[nH]c2=O)cc1,13.8%
19,Cl.O=C(NCCCn1ccnc1)c1cc(Cl)cc(Cl)c1,4.65%
20,Nc1nc(N)c2ncc(C(=O)CCc3ccccc3)nc2n1,7.42%
21,c1ccc2[nH]c(CN3CCOCC3)nc2c1,14%
22,NC(N)=NS(=O)(=O)c1ccc(NC(=S)NC(=O)c2ccc3c(c2)OCO3)cc1,10.5%
23,Brc1ccc(OCc2nc(-c3ccccn3)n[nH]2)cc1,4.48%

row,SMILES,"hERG current change (%, negative = inhibition) at 1uM"
1,CCC1=C(OC(=O)N(CC)CC)N2C(=O)OC(=NCC3CC3)[C@]2(C)[C@H]2C1=CC[C@H]1C(=O)N(C)C(=O)[C@H]12,13.4%
2,Cn1c(CNC(=O)c2ccccc2)nnc1SCC(=O)Nc1nccs1,13.3%
3,O=C(NCCCN1CCOCC1)C(=O)NCc1ccco1,3.89%
4,CN(Cc1ccc(F)cc1)C(=O)c1cccc(OC2CCN(C3CCCC3)CC2)c1,-29%
5,O=C(Nc1ccccc1)c1ccncc1,8.93%
6,Cc1nc(SCC(=O)c2c[nH]c3ccccc23)n[nH]1,12.7%
7,CCc1nnc(NC(=O)c2cc(C)nc3ccccc23)s1,10.6%
8,CC(=O)Oc1ccc(/C=C(\NC(=O)c2ccco2)C(=O)NCc2ccccc2)cc1,-58.9%
9,Cn1ncc([N+](=O)[O-])c1C(=O)Nc1ccccc1Cl,15%
10,Cc1ccc(NC(=O)CN(C)S(=O)(=O)c2ccc3c(c2)n(C)c(=O)c(=O)n3C)c(C)c1,12.7%
11,Clc1ccccc1/C=C/c1nc(-c2ccccn2)no1,13.1%
12,CC(CN1CCCC1)OC(=O)c1ccc(Cl)cc1.Cl (centres unmarked),11.7%
13,COc1ccc(CCNC(=O)C2CCN(C(=O)c3ccccc3)CC2)cc1,12.3%
14,COC(C(=O)Nc1ccc(S(=O)(=O)Nc2c(C)cccc2C)cc1)c1ccccc1 (centres unmarked),-69.6%
15,CC(=O)c1cccc(NS(=O)(=O)c2ccc(N/C=C\C(=O)c3ccc(F)cc3)cc2)c1,13.6%
16,COc1ccccc1NC(=O)CCN1C(=O)C2CC=CCC2C1=O (centres unmarked),12.3%
17,CC(C)c1ccc(NC(=O)C2=NNC(=O)CC2)cc1,7.39%
18,CCCCn1c(O)c(C(C)=NC(C)c2ccccc2)c(=O)[nH]c1=O (centres unmarked),-0.344%
19,O=C(NCCc1ccccc1)C1CCN(c2ncccn2)CC1,5.09%
20,COc1cccc(CNC(=O)c2ccc(C3SCCS3)cc2)c1,-10.1%
21,CC(C)C[C@H](NC(=O)Nc1ccc2c(c1)OCCO2)C(=O)O,10.5%
22,O=[N+]([O-])c1c(N2CCN(CCO)CC2)nc2ccccn12,10.3%
23,CC(=O)c1ccc(NC(=O)CN2CCCCCC2)cc1,16.6%

row,SMILES,"hERG current change (%, negative = inhibition) at 1uM"
1,Cc1cccc(N2N=C(C(=O)Nc3ccc(Cl)c(S(=O)(=O)N4CCOCC4)c3)CCC2=O)c1,-3.81%
2,COCCCn1c(SCc2cccc(OC)c2)nc2cc(OC)c(OC)cc2c1=N,3.02%
3,COC(=O)CN1C(=S)N(c2ccc(Cl)cc2)C(=O)C1CC(=O)Nc1ccccc1 (centres unmarked),1.84%
4,CN(C(=O)COC(=O)CCCN1C(=O)c2cccc3cccc(c23)C1=O)C1CCS(=O)(=O)C1 (centres unmarked),8.53%
5,Clc1ccc2ccc3cccnc3c2n1,12.8%
6,CCOC(=O)C1CCN(C(=O)CCS(=O)(=O)c2ccc3c(c2)CC(C)N3C(=O)CC)CC1 (centres unmarked),12.5%
7,Cc1c(C(=O)NCc2cccnc2)oc2ccc(S(=O)(=O)N3CCCCCC3)cc12,-2.1%
8,O=C(O)c1cccc(-n2sc3ccccc3c2=O)c1,13.3%
9,COc1ccc(CCNC(=O)CSc2nc(O)c(CCC(C)C)c(=O)[nH]2)cc1OC,6.07%
10,COCc1c(C(=O)OCc2nc3ccsc3c(=O)[nH]2)oc2ccccc12,2.36%
11,COc1cc(OC)cc(C(=O)NCc2ccc3c(c2)cc(C)n3C)c1,13%
12,C=CCn1c(-c2ccccc2OCC)n[nH]c1=S,0.355%
13,COc1ccc(S(=O)(=O)N2CCCC(C(=O)NCc3ccco3)C2)cc1Cl (centres unmarked),-3.23%
14,COc1ccc(OC)c(N(CC(=O)NCc2ccccn2)S(C)(=O)=O)c1,11.2%
15,CC(=O)c1cc(CCC(=O)NC2CCCCCC2)oc1C,3.52%
16,COCc1nnc(NC(=O)CCN2C(=O)c3ccccc3C2=O)s1,-1.59%
17,O=C(O)c1ccc2c(c1Nc1ccccc1)C(=O)c1ccccc1C2=O,11.8%
18,CC(C#Cc1ccc2c(c1)COc1c3ccccc3nn1-2)OC(C)(C)C (centres unmarked),16.4%
19,O=C(NNC(=O)c1ccc(Cl)cc1Cl)c1cnccn1,0.624%
20,CC1CCN(c2[nH]c(=S)c(C#N)c3c2CCCC3)CC1,8.22%
